Assay results: ChEMBL document CHEMBL4888484, “Replenishing the malaria drug discovery pipeline: Screening and hit evaluation of the MMV Hit Generation Library 1 (HGL1) against asexual blood stage Plasmodium falciparum ,using a nano luciferase reporter read-out” (2022)
Values joined by “and” are separate entries in the source; they are usually repeats but may differ in a detail not shown here. Identical values can stand only once. About 540 (0.36%) of roughly 150,000 compounds showed an effect of 50% or more. The list shows a part of the results.

System: Plasmodium falciparum
Experiment: Primary screen in NF54 nanoGlo assay, in single point, at 2uM, 72h; a lower Z score goes with more inhibition
Type: functional, Erythrocyte
Details: timepoint 72 hour

SMILES | % Inhibition | Z score | % Inhibition (2 µM)
Fc1ccc(CN2CCc3[nH]cnc3C23CCCCC3)nc1 | -5% | 1.08 | 
N[C@@H](Cc1ccccc1)c1cc2ccccc2[nH]1 | -40% | 4.72 | 
CN1C(=O)N(C)C(=O)C2(Cc3cc(C(F)(F)F)ccc3N3CCCC[C@H]32)C1=O | 1% | -0.15 | 
CCCN1C[C@@H]2CC[C@H]1CN(c1ccc3ccccc3n1)C2 | -1% | 0.13 | 
C[C@H](NC(=O)Nc1ccccc1)C(=O)N1CCN2CCC1CC2 | -4% | 0.35 | 
O=C1NC(=O)C2(Cc3cccc(F)c3N3CCCC32)C(=O)N1c1ccccc1 (stereo not drawn) | -20% | 2.63 | 
COc1ccc2[nH]nc(CN3CC[C@@H](CO)[C@@H](O)C3)c2c1 | -9% | 1.71 | 
O=C(c1ccccc1Cl)N1C2CCC1c1cncnc1C2 (stereo not drawn) | 4% | -0.66 | 
CN1C2CCC1CC(Oc1ccc(Cl)cn1)C2 (stereo not drawn) | -12% | 1.53 | 
O=C(Cc1ccccn1)N1C[C@@H]2CC[C@H]1CN(Cc1ccncc1)C2 | 5% | -0.8 | 
CC(C)n1ccc(C(=O)NC2CC(C(=O)O)c3ccccc32)n1 (stereo not drawn) | -1% | 0.16 | 
O=C(NC[C@H]1C[C@@H]2CC[N@]1C[C@@H]2CN1CCC(Cc2ccccc2)CC1)Nc1ccccc1 | 42% | -2.97 | 
Cc1cc(C)c(CNc2nc3c(cnn3C(C)(C)C)c(=O)[nH]2)c(=O)[nH]1 | -3% | 0.61 | 
c1ccc([C@H]2NCC23CCCCC3)cc1 | -2% | 0.39 | 
O=C(Oc1ccccc1)N1C2CCC1CC(Oc1ccccn1)C2 (stereo not drawn) | -3% | 0.49 | 
N#Cc1ccccc1-c1ccc(-c2c(C#N)c(N)nc3c2[C@@H]2CC[C@H](C3)N2)o1 | -6% | 0.7 | 
CC(C)Oc1cccc(CCN[C@@H](C)CO)c1 | -7% | 0.89 | 
CCn1cc(C(=O)Nc2ccccc2C)c2cccnc21 | -12% | 1.21 | 
CCCn1cc(-c2ccncc2)cc1C(=O)N1CCC2(CC1)OCCO2 | -8% | 0.94 | 
C1CCC(C(NC2CCOC2)C2CC2)CC1 (stereo not drawn) | -8% | 1.16 | 
CCc1nc(C)c(CN2CCC[C@H](C(=O)c3cccc(Cl)c3)C2)[nH]1 | -6% | 0.58 | 
Cc1cnc(N2CCN(C)[C@]3(CCOC3)C2)c(Br)c1 | 4% | -0.59 | 

SMILES | % Inhibition | Z score | % Inhibition (2 µM)
N#Cc1ccc(N[C@H]2CCN(C3CCOCC3)C2=O)cc1C(F)(F)F | 1% | -0.05 | 
O=C(NCCc1cnn[nH]1)c1cccn(Cc2c(Cl)cccc2Cl)c1=O | -22% | 2.23 | 
CCCn1ccc2oc(C)c(C(=O)N3CCC4(CC3)OCCO4)c2c1=O | -2% | 0.36 | 
C[C@@H](CCCC(C)(C)O)NC1CCCCCC1 | -6% | 1.1 | 
CN(Cc1cc[nH]n1)C(=O)c1cc(S(=O)(=O)F)c[nH]1 | -6% | 0.97 | 
N#Cc1cnc2ccccc2c1N1CCC(C(=O)N2CCC3(CC2)OCCO3)CC1 | -18% | 1.81 | 
COc1cc(=O)n(-c2ccc(F)cc2)nc1C(=O)N1CCC2(CC1)OCCO2 | 26% | -3.03 | 
CN(C(=O)CCC(F)(F)F)C1CC2CCC(C1)N2 (stereo not drawn) | -19% | 1.62 | 
CC1CC2CCCCC2N1Cc1ccon1 (stereo not drawn) | -12% | 1.74 | 
CC(C)CN1CCN(Cc2ccncc2)[C@H]2CS(=O)(=O)C[C@H]21 | -1% | 0.26 | 
C[C@@H](CC1CCC1)NCc1ccccc1 | -10% | 1.49 | 
Cc1nn(CCc2ccc(F)c(F)c2)c(=O)o1 | 10% | -1.99 | 
C[C@@H](C(=O)Nc1ccccn1)N1CCOC2(CCCC2)C1 | -17% | 2.14 | 
COc1cccc(C[C@H](C)NC(=O)N(C)C2CCC(CO)CC2)c1 (stereo partly drawn) | -11% | 0.93 | 
CN(CC(O)c1ccccc1)C1CC2CCC1C2 (stereo not drawn) | -1% | 0.16 | 
O=C(Cc1ccc(O)c(F)c1)N1CCN(CC2CC2)[C@@H]2CS(=O)(=O)C[C@@H]21 | 5% | -0.72 | 
CN(C)[C@H]1CCC[C@@H]1NC(=O)c1n[nH]c(=O)c2ccccc12 | 10% | -1.12 | 
C=CCOc1cccc2c1cc(C(=O)NC1CC1)n2Cc1ccc(C(C)(C)C)cc1 | -12% | 2.1 | 
Cc1[nH][nH]c(=O)c1CC(=O)N1CCN(Cc2ccc3c(c2)OCO3)CC1 | -12% | 1.97 | 
Cc1ccc(CN2C3CCC2CC(O)C3)o1 (stereo not drawn) | -2% | 0.26 | 
Cn1cc([C@@H]2CNCc3ccccc32)cn1 | -20% | 2.28 | 
CN(CCC1CC1)C(=O)NCCc1cnc2c(Cl)cnn2c1 | 14% | -1.81 | 

SMILES | % Inhibition | Z score | % Inhibition (2 µM)
O=C1CO[C@H]2CN(Cc3ncc[nH]3)C[C@H]2N1Cc1ccncc1 | -11% | 1.42 | 
CC(C)NC(=O)N1C[C@@H]2C[C@@H](C1)c1cccc(=O)n1C2 | -8% | 1.09 | 
CCc1c(C(=O)NCC2(N3CCOCC3)CCCCCC2)c(=O)cc(C)n1Cc1ccccc1OC | 17% | -2.25 | 
Cc1csc(CN(C)Cc2n[nH]c(=O)o2)n1 | -1% | 0.19 | 
CCCn1c(=O)oc2cc(NS(=O)(=O)c3cccc(Cl)c3)ccc21 | -9% | 0.86 | 
CC1CN(CCc2cccc(N)c2)CC1C (stereo not drawn) | 3% | -0.54 | 
C=CCNC(=O)CN1CCc2ncc(C(F)(F)F)cc2C1 | -5% | 1.02 | 
CC(C)CN(C1CCN(C)CC1)C1CN(C(=O)COc2ccccc2)C1 | 8% | -1.11 | 
Nc1nccnc1C(=O)N1CCC2(CC1)OCCO2 | 14% | -1.23 | 
Nc1ccc(C2(c3ccc(N)cc3)c3ccccc3-c3ccccc32)cc1 | -3% | 0.4 | 
Cc1noc(C)c1CC(=O)N1CC[C@@H]2CN(Cc3cccnc3)[C@@H]2C1 | 14% | -1.84 | 
O=C(NCC#CCN1CCCC1)c1ccc(Cl)cc1 | -7% | 1.27 | 
CCOC(=O)CN(C)C1CN(C(=O)Cc2c(C)n[nH]c2C)C1 | -12% | 1.59 | 
O=S(=O)(NC1CCN2CCCCC12)c1cccs1 (stereo not drawn) | -6% | 0.87 | 
O=C(c1ccc(Cl)cc1)[C@H]1CCCN(Cc2ccc3ncccc3c2)C1 | -9% | 1.33 | 
O=C(COc1ccc(Cl)cc1Cl)N1CCCN2CCC[C@H]2C1 | -7% | 0.7 | 
Cc1ccc(N2CCC3(CCCN3Cc3ccc(Cl)s3)CC2)nn1 | -9% | 1.66 | 
CC(C(=O)N1CCN2C[C@@H](F)C[C@H]2C1)C1CC1 (stereo partly drawn) | -7% | 1.23 | 
Cc1nnc(CN2CCC3(CC2)C(=O)N(C)c2ccccc23)s1 | -15% | 2.52 | 
O=S(=O)(O[C@H]1CN2CCC1CC2)c1ccccc1 |  |  | -12% and 3%
O=C(N[C@@H]1[C@@H]2CCO[C@@H]2[C@H]1N1CCCC1)c1ncccc1O | 1% | -0.28 | 
CC12CC(CN1[C@@H](C(=O)O)c1ccc(F)cc1)C2 | -4% | 0.47 | 

SMILES | % Inhibition | Z score | % Inhibition (2 µM)
CN1CCC[C@]2(CCCN(C(=O)c3ccncc3O)C2)C1 | -3% | 0.38 | 
Cc1cc(N2CC[C@@]3(CCCN3C)C2)ncn1 | -1% | 0.24 | 
CCCCCOc1cccc([C@@H](O)CNC)c1 | 21% | -2.63 | 
CN1CCC2CCN(C(=O)Nc3nccs3)C2C1 (stereo not drawn) | -8% | 0.77 | 
COc1ccc(CC(=O)N2CCN(Cc3ccccc3)CC[C@@H]2C)nc1 | 3% | -0.48 | 
COc1ccc(N2CCN3c4ccccc4CC4(C(=O)N(CCc5ccc(OC)c(OC)c5)C(=O)N=C4O)C3C2)cc1 (stereo not drawn) | 9% | -1.07 | 
CC(C)(C(=O)N1C2CCC1C(CO)C2)c1cccc(Br)c1 (stereo not drawn) | -13% | 1.96 | 
O=C1NC(=O)C2(Cc3cccc(F)c3N3CCN(c4ccccc4)CC32)C(=O)N1c1ccccc1 (stereo not drawn) | -4% | 0.63 | 
CCCCc1cn(C[C@H]2C[C@@H]3CCN2C[C@@H]3C(=O)Nc2nccs2)nn1 | 27% | -3.04 | 
Cc1c(C)n(Cc2ccccc2)c2ccc(C(=O)N3CCC4(CC3)OCCO4)cc12 | -10% | 1.3 | 
COc1cccc(C[C@H](C)NC(=O)CC2(O)CCCC2)c1 | -16% | 1.32 | 
Cc1cc(C)n(C[C@H](C)N2CCc3nocc3C2)n1 | -4% | 0.81 | 
Nc1nc(CCC(=O)NCCc2c[nH]cn2)cs1 | 1% | -0.09 | 
Cn1cc2ncn(CCc3c[nH]cn3)c(=O)c2n1 | 5% | -0.7 | 
CN1CCC(O)(c2ccccc2)C2CCCCC21 (stereo not drawn) | -12% | 2.37 | 
CN(C(=O)C1CC1C1CC1)C1CC2CCC(C1)N2 (stereo not drawn) | -3% | 0.34 | 
C[C@@H](Cc1ccccc1Cl)NC(=O)NCCCC(N)=O | -12% | 2.37 | 
O=C(Nc1cccc(F)c1)N1C[C@@H]2C[C@H](C1)c1c(-c3ccccc3)ccc(=O)n1C2 | -4% | 0.59 | 
Cc1cc(-c2ccccc2)nc(CN2CCCN3CCC[C@H]3C2)n1 | 0% | 0.01 | 
CCN(CC)[C@@]1(c2nnnn2C2CCCC2)CCN(C(=O)Cc2ccncc2)C1 | 2% | -0.22 | 
CCc1nn(C)c(Cl)c1CN1CCN([C@H]2CN3CCC2CC3)CC1 | -11% | 1.82 | 
